The source of these data is the supplement of paper PMC10369915.

B1: NWD2_Y566_L569M (peptide)
chain: HEEDNYIEMIP
B2: NTRK3_Y744_R745P (peptide)
chain: PESIMYPKFTT
B3: NTRK3_Y744_R745W (peptide)
chain: PESIMYWKFTT
B4: OAT_Y50_N54K_YF (peptide)
chain: EREFKYGAHKF
B5: OAT_Y50_N54K (peptide)
chain: EREYKYGAHKY
B6: NUP93_Y391_YF (peptide)
chain: FKRAVYCIIGR
B7: OAT_Y50_G51D_YF (peptide)
chain: EREFKYDAHNF
B8: NUP107_Y296 (peptide)
chain: YAKSVYWENTL
B9: NUP93_Y391 (peptide)
chain: YKRAVYCIIGR
B10: NYX_Y284_L285P (peptide)
chain: ELELLYPDRNS
B11: NUP160_Y773_P768S_YF (peptide)
chain: SLLLSYFLIKW
B12: OAS1_Y362_R361T_YF (peptide)
chain: DDPRTYQKFGF
B13: OAS3_Y376_R378K (peptide)
chain: SLNAVYPKAGS
B14: NTRK2_Y702_R699G_YF (peptide)
chain: MSGDVYSTDFF
B15: NUP98_Y1664_G1669V (peptide)
chain: IINENYDYLKV
B16: NTRK3_Y744 (peptide)
chain: PESIMYRKFTT
B17: NUP107_Y296_E298D (peptide)
chain: YAKSVYWDNTL
B18: NWD2_Y566 (peptide)
chain: HEEDNYIELIP

The other results are listed elsewhere or left out. Cut-off read from the data, not from the text of the source: active = 3.2 or more and inactive = the rest. Only a few entries rise above the background.
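Note: displayed peptides selected on beads carrying the immobilized SH2 domain, with library peptides lacking any tyrosine serving as negative controls.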

One assay addresses SHP2 C-SH2 domain E139D. Briefly: enrichment score (SH2-bound / input frequency) (ratio); bacterial display of known human phosphotyrosine sites (pTyr-Var adds point mutants) read by sequencing; higher = stronger binding; tyrosines were phosphorylated by kinases first. The settings on record: peptide library: pTyr-Var.
With B1, the enrichment score was inactive: 0.802.

Turning to B2, the enrichment score is inactive: 1.04.

Take B3: the enrichment score was inactive: 0.861.

For B4, the enrichment score was inactive: 0.965.

For the molecule B5, the enrichment score was inactive: 0.843.

Turning to B6, the enrichment score is inactive: 0.297.

For B7, the enrichment score is inactive: 0.664.

For the molecule B8, the enrichment score was inactive: 0.973.

On to B9, for which the enrichment score is inactive: 0.405.

Turning to B10, the enrichment score is inactive: 0.837.

In the case of B11, the enrichment score is active: 3.28.

As for B12, the enrichment score is inactive: 0.782.

B13: the enrichment score is inactive: 0.737.

Consider B14, for which the enrichment score was inactive: 0.984.

Turning to B15, the enrichment score was inactive: 1.02.

Consider B16, for which the enrichment score is inactive: 0.695.

Turning to B17, the enrichment score was inactive: 0.954.

Take B18: the enrichment score was inactive: 0.677.

The target in another assay is SHP2 C-SH2 domain wild-type. The description is as above. The settings on record: peptide library: pTyr-Var.
For B1, the enrichment score is inactive: 1.12.

B2: the enrichment score is inactive: 0.479.

As for B3, the enrichment score was inactive: 0.995.

For B4, the enrichment score was inactive: 0.827.

As for B5, the enrichment score is inactive: 0.834.

In the case of B6, the enrichment score is inactive: 0.329.

Consider B7, for which the enrichment score is inactive: 0.581.

Turning to B8, the enrichment score was inactive: 0.899.

As to B9, the enrichment score was inactive: 0.289.

As for B10, the enrichment score is inactive: 0.727.

Consider B11, for which the enrichment score is active: 3.34.

As for B12, the enrichment score is inactive: 0.655.

For the molecule B13, the enrichment score was inactive: 0.639.

Regarding B14, the enrichment score is inactive: 0.745.

For B15, the enrichment score was inactive: 0.839.

With B16, the enrichment score was inactive: 0.486.

As for B17, the enrichment score was inactive: 0.912.

Turning to B18, the enrichment score is inactive: 0.911.

A further assay addresses SHP2 N-SH2 domain L43F. The description is as above. As to conditions: peptide library: pTyr-Var.
Consider B1, for which the enrichment score was inactive: 1.05.

B2: the enrichment score was inactive: 0.704.

On to B3, for which the enrichment score is inactive: 0.704.

For B4, the enrichment score is inactive: 0.788.

As for B5, the enrichment score was inactive: 0.917.

In the case of B6, the enrichment score is inactive: 0.383.

For B7, the enrichment score was inactive: 0.657.

With B8, the enrichment score was inactive: 1.17.

Consider B9, for which the enrichment score was inactive: 0.233.

As for B10, the enrichment score was inactive: 0.851.

Consider B11, for which the enrichment score was active: 3.76.

Turning to B12, the enrichment score is inactive: 0.632.

Turning to B13, the enrichment score is inactive: 0.622.

Regarding B14, the enrichment score was inactive: 0.808.

For B15, the enrichment score was inactive: 0.925.

Consider B16, for which the enrichment score is inactive: 0.584.

For the molecule B17, the enrichment score is inactive: 0.82.

On to B18, for which the enrichment score was inactive: 1.11.

A further assay has as its target SHP2 N-SH2 domain T42A. Described as above. As to conditions: peptide library: pTyr-Var.
In the case of B1, the enrichment score is inactive: 0.681.

With B2, the enrichment score is inactive: 0.697.

Regarding B3, the enrichment score was inactive: 1.74.

With B4, the enrichment score was inactive: 0.903.

For B5, the enrichment score is inactive: 0.865.

Regarding B6, the enrichment score is inactive: 0.306.

Turning to B7, the enrichment score was inactive: 0.69.

Turning to B8, the enrichment score was inactive: 2.22.

Consider B9, for which the enrichment score was inactive: 0.3.

B10: the enrichment score was inactive: 0.592.

In the case of B11, the enrichment score is inactive: 2.75.

Turning to B12, the enrichment score is inactive: 0.596.

On to B13, for which the enrichment score is inactive: 0.714.

As to B14, the enrichment score was inactive: 0.682.

Regarding B15, the enrichment score is inactive: 0.843.

On to B16, for which the enrichment score is inactive: 0.388.

In the case of B17, the enrichment score was inactive: 1.43.

Turning to B18, the enrichment score was inactive: 0.774.

Another assay addresses SHP2 N-SH2 domain T52S. Described as above. The settings on record: peptide library: pTyr-Var.
Turning to B1, the enrichment score was inactive: 1.31.

On to B2, for which the enrichment score was inactive: 0.931.

For B3, the enrichment score is inactive: 1.13.

Take B4: the enrichment score is inactive: 0.805.

For the molecule B5, the enrichment score was inactive: 0.82.

Consider B6, for which the enrichment score was inactive: 0.384.

Take B7: the enrichment score was inactive: 0.721.

With B8, the enrichment score was inactive: 1.23.

In the case of B9, the enrichment score was inactive: 0.259.

On to B10, for which the enrichment score is inactive: 0.892.

Take B11: the enrichment score is inactive: 3.05.

In the case of B12, the enrichment score is inactive: 0.689.

As for B13, the enrichment score was inactive: 0.702.

Take B14: the enrichment score is inactive: 0.714.

As to B15, the enrichment score was inactive: 0.901.

For B16, the enrichment score is inactive: 0.332.

As for B17, the enrichment score was inactive: 0.79.

Turning to B18, the enrichment score was inactive: 0.839.

The target in the next assay is SHP2 N-SH2 domain wild-type. The assay is described as above. The settings on record: peptide library: pTyr-Var.
For the molecule B1, the enrichment score was inactive: 1.65.

Turning to B2, the enrichment score was inactive: 0.56.

As for B3, the enrichment score was inactive: 1.22.

On to B4, for which the enrichment score was inactive: 0.93.

For the molecule B5, the enrichment score was inactive: 1.01.

In the case of B6, the enrichment score is inactive: 0.282.

Take B7: the enrichment score is inactive: 0.805.

Regarding B8, the enrichment score is inactive: 1.03.

B9: the enrichment score is inactive: 0.31.

As to B10, the enrichment score was inactive: 0.925.

For the molecule B11, the enrichment score was inactive: 3.11.

For the molecule B12, the enrichment score is inactive: 0.795.

B13: the enrichment score is inactive: 0.658.

As for B14, the enrichment score was inactive: 0.649.

Consider B15, for which the enrichment score was inactive: 0.829.

In the case of B16, the enrichment score was inactive: 0.657.

Turning to B17, the enrichment score is inactive: 0.85.

For B18, the enrichment score is inactive: 1.45.
